This is an account of results in ChEMBL document CHEMBL1201862, “PubChem BioAssay data set” (2004).

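Test compounds were applied to cells in 96-well plates for 48 hours at 5 doses. Abbreviation: GI50, concentration required for 50% inhibition of growth.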 Calls of active or inactive are those of the source. No stated cut-off is given here; in the data, active = GI50 up to about 1.1 µM and inactive = higher.

This experiment relates to NCI-H322M. The experiment can be described thus: inhibition of tumour cell growth, NCI panel, 48 h.
For the compound `Oc1cc2c(cc1C(c1ccc3c(c1)OCO3)N1CCN(C(c3ccc4c(c3)OCO4)c3cc4c(cc3O)OCO4)CC1)OCO2` (centres undefined), the GI50 is inactive: 22.2 µM.

As for `N#C[C@H](C(=O)c1ccccc1F)c1nc2ccccc2s1`, the GI50 was inactive: 20.5 µM.

In the case of `CN(C)[C@H]1CC[C@H]2[C@@H]3CCC4C[C@@H](NC(=O)NC(Cc5ccccc5)c5nccs5)CC[C@]4(C)[C@H]3CC[C@]12C` (some centres undefined), the GI50 was inactive: 1.7 µM.

For `O=C1OC(c2ccccc2)=N/C1=C/NC(Cc1c[nH]cn1)C(=O)O` (centres undefined), the GI50 is inactive: > 100 µM.

As for `Clc1ccc(/C=N/c2ccc3c(c2)Cc2ccccc2-3)c(Cl)c1`, the GI50 is inactive: > 100 µM.

As for `C[C@]12CC[C@@H]3c4ccc(OC(=O)c5ccccc5)cc4CC[C@H]3[C@@H]1CC[C@@H]2Oc1c2ccccc2nc2ccccc12`, the GI50 was inactive: 10.5 µM.

As to `Cn1c2c(c3ccccc31)CC(=O)N1CCCCC1C21OCCO1` (centres undefined), the GI50 is inactive: > 100 µM.

In the case of `Nc1nc(Cl)c(/C=N\O)c(NCC2(CO)CC(=O)C2)n1`, the GI50 is inactive: 51.8 µM.

On to `CCN(CC)CC1CN=C(N)O1` (centres undefined), for which the GI50 was inactive: > 100 µM.

Take `C=Nc1ccc([N+](=O)[O-])cc1`: the GI50 was inactive: > 100 µM.

Turning to `Cc1cccc2nc3cccc(C(=O)NCCC[N+](C)(CCCNC(=O)c4cccc5nc6cccc(C)c6nc45)Cc4c([N+](=O)[O-])ncn4C)c3nc12`, the GI50 was active: 1.06 µM.

Turning to `CSc1nc2nc(C(O)C(O)C(O)CO)cnc2c(=O)[nH]1` (centres undefined), the GI50 was inactive: > 100 µM.

Take `Cc1ccc([N+](=O)[O-])cc1S(=O)(=O)Nc1ccc(C2=NOC(c3ccccc3)C2)cc1` (centres undefined): the GI50 is inactive: 21 µM.

Consider `COC(=O)C(C(=O)OC)C1CCCC(=O)C1` (centres undefined), for which the GI50 is inactive: > 100 µM.

For the compound `Oc1c(NCn2nc(CCCCCCCCc3nn(CNc4ccc5ccccc5c4O)c(=S)o3)oc2=S)ccc2ccccc12`, the GI50 is inactive: > 100 µM.

Consider `COC1(OC)CCc2c(sc3ncnc(Nc4cccc(Br)c4)c23)C1`, for which the GI50 is inactive: 3.78 µM.

For the compound `CC(=O)O[C@H]1CC[C@H]2[C@@H]3CCC4C(C)=NNC(=O)C4[C@H]3CC[C@]12C` (some centres undefined), the GI50 was inactive: > 80.4 µM.

For `CC1=C(C(=O)OCCO[N+](=O)[O-])C(c2cccc([N+](=O)[O-])c2)C(C(=O)OC(C)C)=C(C)N1` (centres undefined), the GI50 was inactive: 20.2 µM.

Regarding `Cc1cc(N(CCC#N)S(=O)(=O)c2ccccc2)ccc1/C=N\c1cccc(C(=O)O)c1`, the GI50 was inactive: > 100 µM.

As for `O=C(Nc1ccccc1C(=O)NC(=O)c1ccccc1NC(=O)c1ccccc1)c1ccccc1`, the GI50 is inactive: 13.9 µM.

As for `CC(C)(C)c1cc2c(O)c(c1)Cc1cc(C(C)(C)C)cc(c1O)Cc1cc(C(C)(C)C)cc(c1O)Cc1cc(C(C)(C)C)cc(c1O)Cc1cc(C(C)(C)C)cc(c1O)Cc1cc(C(C)(C)C)cc(c1O)Cc1cc(C(C)(C)C)cc(c1O)Cc1cc(C(C)(C)C)cc(c1O)C2`, the GI50 is inactive: > 50 µM.

For the compound `CC(=O)N(CCc1ccccc1)C(C#N)c1ccccc1` (centres undefined), the GI50 was inactive: > 100 µM.

Consider `ClCC1(CCl)COC1`, for which the GI50 is inactive: > 100 µM.

Regarding `CC1(C)CS(=O)(=O)CC(C)(C)C(=N/N)/C1=N\N`, the GI50 was inactive: > 100 µM.

For `C/C(=N\NC(N)=S)c1ccc(/C(C)=N/NC(N)=S)cc1`, the GI50 is inactive: > 100 µM.

As to `CC(=O)OCCn1cnc2nc(Nc3ccccc3)nc(Cl)c21`, the GI50 was inactive: 71.1 µM.

As to `Nc1ncnc2c1ncn2[C@@H]1O[C@H](COP(=O)(O)OP(=O)(O)OC[C@H]2O[C@@H](OCCCO)[C@H](O)[C@@H]2O)[C@@H](O)[C@H]1O`, the GI50 was inactive: 94.6 µM.

As to `Nc1nc(Br)nc2ncn(C3CC(O)C(CO)O3)c12` (centres undefined), the GI50 was inactive: > 100 µM.

Consider `Cc1ccccc1C1CC(=O)CC(c2ccccc2C)C12C(=O)NC(=O)NC2=O` (centres undefined), for which the GI50 was inactive: > 100 µM.
